Measured values taken from the supplement of paper PMC11417369.
± gives the standard deviation of the averaged measurements. The list shows a part of the results.

These sequences were tested on PfAP2-EXP AP2 domain (GST-tagged) (assay: gcPBM binding intensity (ln(normalized median fluorescence intensity)); higher = stronger DNA binding).
Summary of the method: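 An Agilent 4 × 180k array of primer-extended double-stranded 36-bp intergenic genomic probes, with negative controls, was incubated for 1 h with GST-tagged P. falciparum DNA-binding domains expressed in E. coli. Alexa488 anti-GST antibody detected bound protein, scanned at 488 nm. Binding intensity is the highest Masliner-normalised natural-log median intensity across replicate spots of either probe orientation.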

Sequence	gcPBM binding intensity (ln)
TTTATATATTATATAAATATTATTATACTTTAAATA [TGCATGCA_negctrl_site236]	8.01 ± 0.39
TTTTATCGATATATCTGTACATATTACTTATAATAA [XGTACX_site57]	8.81 ± 0.47
ATGCTTTTGTCATGTGCACACACGTATATATTATAT [CACACA_site4163]	9.12 ± 0.23
ACATGTATTTATAAGAGTACATATGTGTGCATGTTT [XGTACX_site7946]	8.715 ± 0.035
TTTATAATATACATAACACACAATTATTATTTCTTA [CACACA_site3624]	8.19 ± 0.4
TTATAACAAATATAGAGTACTAAAATTTTACGTTAT [XGTACX_site1410]	8.43 ± 0.47
TTTTTTTCCTTATCTATATATAATCAAATTTTCTAC [CACACA_negctrl_site867]	8.54 ± 0.43
AACTTTTAGAAGAACACACACATATAGATTATGACC [CACACA_site6256]	8.8 ± 0.26
TCGAACATTAACATAACACACATATATATATATATA [CACACA_site2900]	10.2 ± 0.32
AAGGTTATTTATATATGTACTTAATATATATATATG [XGTACX_site886]	8.36 ± 0.3
ATGTACTATGATAATGCATGCAATAATACATTTTTA [TGCATGCA_site318]	9.77 ± 0.18
TAATATATATATAATACACACTATTTTAATCACATA [CACACA_site4849]	8.24 ± 0.42
TTATTATGTATATATGCACACAATACCCAAAACAAC [CACACA_site80]	8.89 ± 0.21
GAAGATTTATCTTGCACACGCAAAAAAAAAAAAAAA [CACACA_site154]	8.4 ± 0.27
TTTATTGCTCTATATGCACACCTTAATTCTTCATTT [CACACA_site8682]	8.99 ± 0.33
AAAAATAATCATAGTAGTACAAAAAAAAAAAAAAAA [XGTACX_site3736]	8.27 ± 0.61
TACGTAAATTCTAATACACACTATAGGATATTCTGC [CACACA_site7248]	8.37 ± 0.44
GAAAATATTTCTATCTGTACTTATTTATATATATAT [XGTACX_site7317]	9.54 ± 0.071
TGCATGTAATTTTTGTGTCCACATAAAATATTTAAT [XGTACX_site5652]	9.175 ± 0.007
TTTTTATGAAAATAAACACACGATTTATTATATATA [CACACA_site1311]	8.27 ± 0.34
TTCTATATATTATATGCATGTAAAACATATTAAAAT [TGCATGCA_site662]	8.78 ± 0.42
TTTTTCAATTGTAGTGGTACAGATATAATTATCTCT [XGTACX_site5500]	8.67 ± 0.57

Sequence	gcPBM binding intensity (ln)
TAATTATTACACGGTATTATATATAATATGTTAAAA [GTGCAC_negctrl_site134]	8.41 ± 0.35
TTTTTTGTTAAACCGGTGCATATAAATATATATATA [GTGCAC_site9989]	9.72 ± 0.071
ATCATTTTTTATGCGTGTACATAAATTTATTAGGTT [XGTACX_site2786]	8.84 ± 0.36
CACAAAAAAGTTCATACACACAACATATTTATATAT [CACACA_site2887]	8.39 ± 0.39
ATATCTATATTTTAAAGTACGTAGTAAAAAGAAAAA [XGTACX_site4323]	8.69 ± 0.4
TTTTTTTTTTTTCTGTGTACATATATAATATATATA [XGTACX_site1592]	8.78 ± 0.33
TTTTATGAAAAGATGAGTACACAATACTTTTTAATT [XGTACX_site8253]	8.19 ± 0.35
TTGTCACTAATAGATGCATGCAATCATTCCATTTTT [TGCATGCA_site938]	9.64 ± 0.37
TTATGTCGTAAATACACACATACATATACATACACA [CACACA_site1374]	8.49 ± 0.39
AATAAATTGAAACACACACACACATATATATATATA [CACACA_site848]	10.2 ± 0.32
TTGTAATGATATATTTGTACTTAATATAATTGTATA [XGTACX_site2748]	8.29 ± 0.33
GTTACATACCTATACACACACATATATAAATAAATA [CACACA_site6549]	8.65 ± 0.4
TAACAAAACATAGATTGTACATATTATAAATGTATA [XGTACX_site1543]	8.46 ± 0.38
CAAAATATACACACGTGTACACAAATATTTACAAAA [XGTACX_site2257]	8.74 ± 0.4
TTTCCCATAGGAAAAACACACATATATTATATATAA [CACACA_site1981]	8.3 ± 0.48
CAATATTATATTACTTGTACACATATGTAGTTTCGA [XGTACX_site8945]	8.64 ± 0.33
TATTCTTATCTTACCACACACAATGTACGAAAAGAT [CACACA_site6296]	8.61 ± 0.3
ATATAAAAATACAGGTGTACATTTTTTCATATTTAT [XGTACX_site6959]	8.42 ± 0.34
TTTTTTGAAAATAAAAGTACAAATTTTATATTTAAA [XGTACX_site2758]	8.08 ± 0.42
ACAAACTAAAAAAGAAGTACAAATCGTATTAATAAT [XGTACX_site8684]	8.87 ± 0.49
AGAAAAAAACGGTACAGTACACATAAACTAATTATT [XGTACX_site8617]	8.81 ± 0.52
TATTATATATGGAAGTAATAATATATATATATATAT [GTGCAC_negctrl_site63]	9.96 ± 0.62
